Experimental data taken from PMC4336329 (PLoS ONE, 2015).
The whole screen tested about 310,000 compounds, of which about 2,200 (0.71%) showed an effect of 50% or more. The effect is printed as a negative number. This is one part of the list.

target: human ether-à-go-go-related gene (hERG) potassium channel (human, UniProt Q12809); assay: primary screen, population patch clamp on CHO cells stably expressing hERG
Sequence (Q12809 whole entry, looked up): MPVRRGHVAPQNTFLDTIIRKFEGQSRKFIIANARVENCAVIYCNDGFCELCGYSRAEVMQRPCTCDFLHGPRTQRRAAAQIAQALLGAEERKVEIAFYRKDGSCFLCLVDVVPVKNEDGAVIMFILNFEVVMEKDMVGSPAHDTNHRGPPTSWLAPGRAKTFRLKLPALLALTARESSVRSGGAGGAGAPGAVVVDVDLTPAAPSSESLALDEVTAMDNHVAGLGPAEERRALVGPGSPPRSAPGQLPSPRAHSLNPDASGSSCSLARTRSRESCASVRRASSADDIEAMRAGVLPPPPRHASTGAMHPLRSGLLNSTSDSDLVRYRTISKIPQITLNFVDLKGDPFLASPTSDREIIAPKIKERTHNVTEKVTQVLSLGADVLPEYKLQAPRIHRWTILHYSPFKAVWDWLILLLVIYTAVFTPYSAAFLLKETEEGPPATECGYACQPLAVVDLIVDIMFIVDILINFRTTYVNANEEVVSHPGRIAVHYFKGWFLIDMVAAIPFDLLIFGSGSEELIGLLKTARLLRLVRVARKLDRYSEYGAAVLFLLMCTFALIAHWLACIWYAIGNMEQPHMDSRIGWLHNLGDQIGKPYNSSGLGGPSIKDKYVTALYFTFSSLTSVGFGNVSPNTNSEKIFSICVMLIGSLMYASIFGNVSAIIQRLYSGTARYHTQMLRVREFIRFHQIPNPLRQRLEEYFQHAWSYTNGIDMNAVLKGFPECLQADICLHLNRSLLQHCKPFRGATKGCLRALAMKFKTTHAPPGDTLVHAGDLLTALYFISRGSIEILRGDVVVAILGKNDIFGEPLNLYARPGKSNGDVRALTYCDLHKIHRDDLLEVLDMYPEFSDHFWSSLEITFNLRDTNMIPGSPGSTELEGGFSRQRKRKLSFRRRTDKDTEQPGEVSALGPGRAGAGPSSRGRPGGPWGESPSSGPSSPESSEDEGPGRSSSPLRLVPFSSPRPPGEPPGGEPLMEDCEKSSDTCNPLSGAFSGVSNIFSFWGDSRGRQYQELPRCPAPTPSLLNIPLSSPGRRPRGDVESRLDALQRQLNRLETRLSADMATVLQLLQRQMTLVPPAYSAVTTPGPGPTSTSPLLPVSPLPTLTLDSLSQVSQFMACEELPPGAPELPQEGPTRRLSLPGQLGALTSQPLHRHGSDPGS

| SMILES | hERG current change (%, negative = inhibition) at 1uM |
| --- | --- |
| Cc1cccc(C(=O)NNC(=O)CCC(=O)Nc2cccc(Cl)c2C)c1 | 6.38% |
| COCCNC(=O)C(c1ccc(O)cc1)N(Cc1cccs1)C(=O)CCC(=O)Nc1ccccn1 (stereo not shown) | 16.6% |
| Cc1nc2cc(CO)ccc2s1 | 5.86% |
| CCc1ccc(C)c(OC(=O)c2cncc(Br)c2)c1 | 12.1% |
| Cn1c(=S)n(CCC(=O)O)c2ccccc21 | 16.1% |
| Cc1ccc(S(=O)(=O)N2CCOCC2)cc1NC(=O)CSc1nnnn1C | 13.4% |
| COC(=O)C1(S(=O)(=O)c2cc(Br)cc3c2N(C(C)=O)CC3)CC1 | 7.31% |
| Fc1ccc(OCCOCCOc2cccc3[nH]ccc23)cc1 | 17.7% |
| COC(=O)C1CC(=O)N(c2ccc(OCc3ccccc3Cl)cc2)C1 (stereo not shown) | 9.09% |
| CCCCOc1ccc(-c2nnn(CC(=O)Nc3ncc(CC(=O)OCC)s3)n2)cc1 | 15.2% |
| Cc1cc(/C=C2/NC(=O)NC2=O)c(C)n1-c1ccncc1 | 9.13% |
| O=C(O)c1ccc(-n2cccn2)c([N+](=O)[O-])c1 | 12.3% |
| CC(C)OP(=O)(OC(C)C)C(NC(=O)c1ccc(Br)cc1)c1ccccc1 (stereo not shown) | -0.7% |
| Cc1ccc(CNC(=O)CSc2nccn(-c3ccc(C)c(F)c3)c2=O)cc1 | 6.77% |
| COC(=O)c1ccccc1NC(=O)NC1CCCCC1 | 13.8% |
| COc1cccc(/C=N/Nc2cc(Cl)nc(C)n2)c1O | 11.3% |
| CCOC(=O)c1cnn(-c2cc(C)nc3c(-c4ccccc4)cnn23)c1N | 2.33% |
| Fc1ccc(-c2nc3ccccn3c2NCc2ccc3c(c2)OCO3)cc1 | 4.69% |
| CC(C)CCNC(=O)C1(c2cccs2)CCOCC1 | 12.6% |
| C=Cc1ccc(COC(=O)c2cn(CC)c3nc(C)ccc3c2=O)cc1 | -21% |
| C[C@H]1CN=C(N(C)C)N1CCCCc1ccccc1 | -5.58% |
| CCOC(=O)Cc1csc(SCC(=O)NC2CCS(=O)(=O)C2)n1 (stereo not shown) | 17.2% |

| SMILES | hERG current change (%, negative = inhibition) at 1uM |
| --- | --- |
| COc1ccccc1N=Nc1nc(-c2ccccc2)c(-c2ccccc2)[nH]1 | 2.06% |
| Cc1ccc(NC(=O)C(C)OC(=O)CCC2CCCCC2)cc1 (stereo not shown) | 3.25% |
| COc1cccc(N(C(=O)CNC(=O)c2ccco2)C(C(=O)NC2CCCC2)c2ccncc2)c1 (stereo not shown) | 9.57% |
| CCN(Cc1ccncc1)C(=O)CCc1ccccc1 | 9.35% |
| CC(C)c1nnc(NC(=O)CS(=O)(=O)c2ccccc2)s1 | 8.65% |
| COc1ccc(C(=O)Nc2nnc(CC(=O)N/N=C/c3ccc(O)cc3O)s2)cc1 | 15% |
| CCOc1ccc2nc(NCCCNS(=O)(=O)c3ccccc3)c(C#N)cc2c1 | -6.51% |
| COC(=O)c1sccc1NC(=O)COc1ccc(Cl)cc1Cl | 13.5% |
| COc1cc(Cl)c(C)cc1NC(=O)CCCn1c(=O)oc2ccccc21 | 9.24% |
| O=C(NCc1ccc(Cl)cc1)c1ccc(Cl)cc1[N+](=O)[O-] | 5.08% |
| O=C(COC(=O)CCN1C(=O)c2ccccc2C1=O)Nc1ccc(S(=O)(=O)N2CCCC2)cc1 | -0.242% |
| COc1cccc(-c2cc(C(F)(F)F)n3nc(C(=O)N4CCCCC4c4cccnc4)cc3n2)c1 (stereo not shown) | 11.2% |
| O=C(C1COc2ccccc2O1)N1CCN(Cc2ccc3c(c2)OCO3)CC1 (stereo not shown) | -8.61% |
| CC(=O)c1ccc(Sc2ccccn2)c([N+](=O)[O-])c1 | 10.3% |
| COc1cc(C(=O)Nc2ccc(OCC(=O)O)cc2)cc(OC)c1OC | 16.4% |
| CC1(C)Cc2c(C#N)c(NCCCO)nc(-c3ccccc3)c2CO1 | -13.3% |
| CC1CCCC(C)N1C(=O)COC(=O)C1CCN(S(=O)(=O)c2c(Cl)cccc2Cl)CC1 (stereo not shown) | 1.72% |
| Cc1ccc(N2CC(C(=O)N3CCCCC3)CC2=O)cc1C (stereo not shown) | -3.77% |
| O=[N+]([O-])c1ncccc1Oc1nc(-c2cccnc2)nc2ccccc12 | 10.2% |
| CC(=O)N[C@@H]1c2c(ccc3ccccc23)OC[C@@H]1COC(C)=O | 8.59% |
| CCOP(=O)(OCC)c1nc(/C=C/c2ccccc2)oc1NCc1ccccc1 | 7.49% |
| CSc1nc2ccccc2n1Cc1c(Cl)cccc1Cl | 11.6% |

| SMILES | hERG current change (%, negative = inhibition) at 1uM |
| --- | --- |
| COc1ccc(Oc2c(C)oc3c(CN4CCOCC4)c(O)ccc3c2=O)cc1 | 19% |
| O=C(Nc1cccc(NC(=O)C2CCCO2)c1)c1ccco1 (stereo not shown) | 10.9% |
| Cc1cc(OCC(=O)Nc2ccncc2)cc(C)c1Cl | 16.2% |
| COc1ccc(OC)c(CN(CCN2CCOCC2)C(=O)Nc2cccc(Cl)c2)c1 | 8.87% |
| CC1(C)O[C@@H]2CC3C4C[C@H](F)C5=CC(=O)C=CC5(C)C4C(O)CC3(C)[C@]2(C(=O)CO)O1 (stereo partly shown) | 14.9% |
| Cc1cccc(OCCC(=O)N(C)CC(=O)Nc2cccc3ccccc23)c1 | 4.62% |
| CC(=O)COc1ccc2c3c(c(=O)oc2c1)CCCC3 | -4% |
| Cc1c(NC(=O)CCCN2C(=O)c3cccc4cccc(c34)C2=O)c(=O)n(-c2ccccc2)n1C | 5.17% |
| Cc1ccc(CCNC(=O)Cn2ccc3cc(S(=O)(=O)N4CCCC4)ccc32)cc1 | 9.34% |
| O=C(C1CCC(CNS(=O)(=O)c2cccs2)CC1)N1CCN(c2ccc(F)cc2)CC1 (stereo not shown) | -11.4% |
| COc1cc(C(C)=O)ccc1OCC(O)CNCC1(N2CCCCC2)CCCCC1.O=C(O)C(=O)O (stereo not shown) | 2.35% |
| Cn1c(=O)cc(N2CCCCC2)[nH]c1=O | 11.2% |
| COc1ccccc1N1CCN(CC(O)COCCOc2ccc(Br)cc2)CC1.Cl (stereo not shown) | 6.16% |
| O=C1OCC(CO)(CO)N=C1NNc1ccccc1Cl | 14.6% |
| CCS(=O)(=O)NC(C)C(c1cccs1)N1CCN(c2ccc(F)cc2)CC1 (stereo not shown) | 15.4% |
| O=C(CN1CCN(c2ccc(F)cc2)CC1)Nc1nccs1 | 9.4% |
| O=C(Nc1ccccc1)O/N=C(\c1ccccc1)c1ccccn1 | 5.35% |
| COc1ccc(-c2nc(CC(=O)O)cs2)cc1 | 7.21% |
| COC(=O)c1cccc(NC(=O)CSc2nc(=O)cc(N)n2-c2ccccc2)c1 | 18.3% |
| Cc1cccc(NC(=O)CSc2nc3ccccc3nc2N2CCCC2)c1C | 6.74% |
| O=C(NCC1CCCO1)c1ccc(Cn2c(=S)[nH]c3ccccc3c2=O)cc1 (stereo not shown) | 8.27% |
| CC1CCc2nn(CC(=O)N3CCN(C(=O)c4ccco4)CC3)cc2C1 (stereo not shown) | 1.15% |

| SMILES | hERG current change (%, negative = inhibition) at 1uM |
| --- | --- |
| COc1ccc(OC)c(C2C(C(=O)c3ccco3)=C(O)C(=O)N2Cc2cccnc2)c1 (stereo not shown) | 15% |
| CCOc1cc2c(cc1OCC)-n1cccc1C(c1ccccc1OC)NC2.Cl (stereo not shown) | 21.9% |
| N#CCCNC(=O)CCN1CCOCC1 | 13.5% |
| COc1ccc(CN2CCN(Cc3ccccc3)C(CCO)C2)cc1OC (stereo not shown) | 6.76% |
| COc1ccc(N(CC(=O)N2CCN(Cc3ccccc3)CC2)S(C)(=O)=O)cc1Cl | 14% |
| CCOC(=O)C1CCCN(C(=O)CN2C(=O)NC(C)(c3ccc4ccccc4c3)C2=O)C1 (stereo not shown) | 6.69% |
| CCN(CC(=O)Nc1c(F)cccc1F)C(=O)c1ccccc1F | 16.3% |
| O=C(C1CC1)N1CCN(c2ccc(O)cc2)CC1 | 2.84% |
| CCN(CC)S(=O)(=O)c1ccc(N2CCCC2)c(NC(=O)c2ccc(OC)cc2OC)c1 | -3.3% |
| COc1ccc(C(NC(=O)c2ccccc2F)NC(=O)c2ccccc2F)cc1 | 9.66% |
| COc1ccccc1C(=O)COC(=O)CN1C(=O)c2ccccc2C1=O | 16.2% |
| COc1ccc(C)cc1NC(=O)CN(c1ccc(C)cc1)S(C)(=O)=O | 0.905% |
| Cc1ccc(S(=O)(=O)Nc2cc(S(=O)(=O)N3CCCCC3)ccc2N2CCOCC2)cc1 | 18.5% |
| CCOc1ccccc1N1CC(C(=O)Nc2cccc(S(=O)(=O)N3CCCCC3)c2)CC1=O (stereo not shown) | 4.86% |
| CCOCCCNC(=O)/C(C#N)=C/c1ccccc1F | 7.31% |
| C/C(=N\NC(=O)C1CCCN(S(=O)(=O)c2ccccc2)C1)c1ccccn1 (stereo not shown) | 7.2% |
| COc1ccc(CN2CCN(C(c3ccc(F)cc3)c3ccc(F)cc3)CC2)c(OC)c1OC.Cl | 6.28% |
| CCOc1ccc(N=C2Sc3nc4ccc(C)cc4cc3CN2CCOC)cc1 | 16.5% |
| CCCNC(=O)c1ccc(N2CCC3(CC2)CC(c2cccc(Br)c2)=NO3)c(NC(=O)c2c(Cl)cccc2Cl)c1 | 1.79% |
| CCOc1ccc(-c2nnc3ccc(SCC(=O)Nc4nc5ccccc5s4)nn23)cc1 | 4.4% |
| CC(=O)Nc1ccc(N2C(=O)CSC2c2c(F)cccc2Cl)cc1 (stereo not shown) | 3.41% |
| CN(C(=O)c1ccc2c(c1)OCO2)C1CCS(=O)(=O)C1 (stereo not shown) | 5.94% |
